In PubChem BioAssay AID588795 (National Center for Advancing Translational Sciences (NCATS), 2011):
Several values for one entry are separate records, joined by “and”; a condition that tells them apart may be missing. Equal entries are not always repeated. The campaign covered roughly 390,000 compounds. About 1,400 (0.36%) were called active. The shares of active, inactive and inconclusive entries below differ from those in the screen. Calls follow the shape of the dose curve; as a rule, active = well fitted inhibition curve with a large enough effect; inconclusive = small, poorly fitted or top-dose-only effect; inactive = no such curve, though single readings can be large or run the other way. Where the call is inconclusive, the potency comes from a doubtful curve fit.

The compounds below were run against Flap endonuclease 1 (Homo sapiens) (UniProt P39748) (assay: qHTS Assay for the Inhibitors of Human Flap endonuclease 1 (FEN1).). Details: Recombinant FEN1 flap cleavage, fluorescence, 15 min; series mostly up to 114 µM; activity change, negative = inhibition: at the top concentration.
Sequence of UniProt P39748 (P39748 whole entry, looked up): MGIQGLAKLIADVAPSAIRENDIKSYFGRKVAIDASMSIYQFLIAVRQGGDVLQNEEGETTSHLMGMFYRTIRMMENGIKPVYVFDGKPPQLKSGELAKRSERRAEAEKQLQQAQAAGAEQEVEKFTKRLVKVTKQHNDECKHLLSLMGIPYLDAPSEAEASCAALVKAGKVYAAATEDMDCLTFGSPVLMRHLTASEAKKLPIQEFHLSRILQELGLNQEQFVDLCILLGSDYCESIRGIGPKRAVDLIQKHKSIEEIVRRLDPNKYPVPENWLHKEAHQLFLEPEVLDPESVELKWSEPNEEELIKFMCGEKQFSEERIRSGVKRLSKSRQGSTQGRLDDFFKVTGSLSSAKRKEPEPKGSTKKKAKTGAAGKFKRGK
Outline: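 Concentration–response screening of FEN1 (10 nM): 15 min compound preincubation at room temperature, reaction started with 50 nM substrate and read at 0 and 15 min. Corrected, normalized data were fitted by a four-parameter Hill equation.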
% is scaled to controls: 0 for no effect and ±100 for the full control effect; potency is read from the fitted curve at half-maximal effect; tags tell the direction and shape of the fitted curve.
Also: nearly all actives have a fitted effect of over 65% in size.

SMILES	Potency	activity change, negative = inhibition
CCOC(=O)c1c(C)oc2ncnc(NCCc3ccccc3)c12	inconclusive: 3.98 µM [inhibitor, partial curve, poor fit]	
COc1cc2[nH]c(=S)nc(Nc3ccc(NC(C)=O)cc3)c2cc1OC	inconclusive: 31.6 µM [inhibitor, partial curve, poor fit]	
O=C1c2cccc(NCCNCCO)c2C(=O)c2cccc(NCCNCCO)c21	active: 3.98 µM	
CCN(c1nc(N)c(C(=O)N=C(N)N)nc1Cl)C(C)C	inconclusive: 37.7 µM [inhibitor, partial curve, poor fit]	
COc1cc(C(C(=O)NCC2CCCO2)N(C(=O)Cn2nnc3ccccc32)c2ccc(OC)c(OC)c2)ccc1O (stereo not given)		inactive: 1.57%
CN(C)c1ccc(-c2nnc3n(Cc4ccccc4)c(=O)c4ccccc4n23)cc1		inactive: -0.0269%
CCC(=O)C1=C(c2ccc(OC)c(OC)c2)N(C(=O)CC)n2c(CC)nnc2S1	inconclusive: 70.8 µM [inhibitor, single point]	
CCn1c2ccccc2c2cc(/C=N/NC(=O)c3cc(O)cc(O)c3)ccc21	inconclusive: 39.8 µM [inhibitor, partial curve, poor fit]	
Nc1c(C(=O)N/N=C/c2cccnc2)oc2nc(-c3ccco3)cc(-c3ccco3)c12		inactive: -13.6%
O=C1NC(=S)N/C1=C/c1cc([N+](=O)[O-])ccc1O		inactive: -3%
Cc1ccc(S(=O)(=O)NCC(C)n2nc(C)cc2C)cc1 (stereo not given)	inconclusive: 89.1 µM [inhibitor, single point]	
COc1ccc(CCNC(=O)c2cc3c(=O)n4ccccc4nc3n(C3CCCCC3)c2=N)cc1OC	inconclusive: 20 µM [inhibitor, full curve, poor fit]	
CSc1ccc(CCNC(=O)C(C)n2nc(C)c3sc4ccccc4c3c2=O)cc1 (stereo not given)	inconclusive: 56.2 µM [inhibitor, partial curve, poor fit]	
Cc1cc(CC(=O)O)c2oc(-c3ccoc3)cc(=O)c2c1	inconclusive: 25.1 µM [inhibitor, full curve, poor fit]	
CCc1ccc2c(c1)cc(CN(C(=S)Nc1cccc(C)c1)C1CC1)c1nnnn12		inactive: -1.28%
CCOC(=O)CNC(=O)C1(/C=C/c2ccccc2)CC(=O)N1c1ccc(C)cc1 (stereo not given)	inconclusive: 39.8 µM [inhibitor, partial curve, poor fit]	
CCn1c(=O)c([N+](=O)[O-])c(NCc2ccco2)c2ccccc21	inconclusive: 50.1 µM [inhibitor, partial curve, poor fit]	
C=CCNC(=S)N/N=C/c1cn(-c2ccccc2)nc1-c1ccc(OC)cc1	inconclusive: 89.1 µM [inhibitor, partial curve, poor fit]	
CCOc1cc(/C=C2/C(=O)NN(c3cccc(Cl)c3)C2=O)ccc1O		inactive: 4.72%
CC(C)c1ccc(NS(=O)(=O)c2ccc3[nH]cc(C(=O)NCC4CCCO4)c(=O)c3c2)cc1 (stereo not given)		inactive: 1.2%
Cc1ccc2cc(C3C(C#N)=C(N)Oc4c3ccc3cccnc43)c(=O)[nH]c2c1 (stereo not given)	inconclusive: 89.1 µM [inhibitor, single point]	
COCCN(C(=O)c1cc(CN2C(=O)c3ccccc3C2=O)ccc1OC)c1c(N)n(CC(C)C)c(=O)[nH]c1=O		inactive: 20%

SMILES	Potency	activity change, negative = inhibition
COCCCNC(=O)CC(NS(=O)(=O)c1ccc(C)cc1)c1ccco1 (stereo not given)		inactive: -0.175%
COC(=O)C1=C(C)N(Cc2ccccc2)C(=O)N[C@H]1c1cccc(C(F)(F)F)c1	inconclusive: 70.8 µM [inhibitor, partial curve, poor fit]	
COc1ccc([N+](=O)[O-])cc1N(CC(O)CN(CC(C)C)CC(C)C)S(=O)(=O)c1ccccc1 (stereo not given)	inconclusive: 89.1 µM [inhibitor, partial curve, poor fit]	
COc1ccc(OC)c(NC(=O)CSC2=Nc3ccccc3C3=NC(CC(=O)NCc4ccc(F)cc4)C(=O)N23)c1 (stereo not given)	inconclusive: 44.7 µM [inhibitor, partial curve, poor fit]	
COc1cc2c3c(n(C)c(=O)c2cc1OC)-c1cc2c(cc1C3=O)OCO2	inconclusive: 89.1 µM [inhibitor, single point]	
O=C(/C(N=Nc1cccc(C(F)(F)F)c1)=C(/O)c1cccs1)C(F)(F)F	inconclusive: 44.7 µM [inhibitor, partial curve, poor fit]	
COC(=O)/C=C/c1ccc(-n2cncn2)cc1		inactive: -3.75%
Cc1cccc(Nc2nc(C)nc3c2oc2ccccc23)c1	inconclusive: 89.1 µM [inhibitor, single point]	
COc1cccc(/C=N/Nc2ccc([N+](=O)[O-])cc2)c1O		inactive: 1.06%
CN(C)CCc1cc2c(c3c1ccc1ccccc13)OCO2	inconclusive: 14.1 µM [inhibitor, full curve, poor fit]	
O=S(=O)(Nc1cc(Sc2ncn[nH]2)c(O)c2ccccc12)c1ccccc1	active: 20 µM	
Cc1c(/C=C(\C#N)C(=O)Nc2cccc(Cl)c2)c2ccccc2n1Cc1ccccc1	inconclusive: 89.1 µM [inhibitor, single point]	
N/C(Cc1ccc([N+](=O)[O-])cc1)=N\OC(=O)c1ccc2ccccc2c1	inconclusive: 50.1 µM [inhibitor, partial curve, poor fit]	
O=C(Nc1ccccc1F)c1coc(=O)c(Br)c1	inconclusive: 89.1 µM [inhibitor, partial curve, poor fit]	
COC1=C/C(=C/c2c(N)n3nc(-c4ccc(C)cc4)sc3nc2=O)C=CC1=O	inconclusive: 79.4 µM [inhibitor, partial curve, poor fit]	
CCOC(=O)c1ccc(NC(=O)COc2ccc(S(=O)(=O)NC(C)CC)cc2)cc1 (stereo not given)		inactive: -0.957%
Oc1ccc(C(=S)N2CCCCCC2)cc1		inactive: -5.1%
COc1ccc(-c2cc(=O)oc3c(C)c(OCC(=O)Nc4cccnc4)ccc23)cc1	inconclusive: 50.1 µM [inhibitor, partial curve, poor fit]	
O=C(C[n+]1cccc2cc(Cl)ccc21)c1ccc(Br)cc1		inactive: -17%
CCOc1ccc(NC(=O)c2ccc(NC(=O)COC(=O)c3ccc(NC(=O)CC#N)cc3)cc2)cc1	inconclusive: 89.1 µM [inhibitor, single point]	
Oc1ccc(C[C@@H]2CNC(=S)N2CCCCC2CCCCC2)cc1	inconclusive: 79.4 µM [inhibitor, partial curve, poor fit]	
Cc1occc1C(=O)N1CCN(c2ccc([N+](=O)[O-])cc2)CC1		inactive: -2.8%

SMILES	Potency	activity change, negative = inhibition
COC(=O)c1ccc2c(c1)C(C)(C)C(/C=C/c1ccc(O)cc1)=[N+]2C	active: 44.7 µM	
COc1ccc(NC(=O)c2oc3ccccc3c2NC(=O)C2CC2)cc1OC	inconclusive: 56.2 µM [inhibitor, partial curve, poor fit]	
O=C1c2ccccc2-c2nc3ccccc3nc21	inconclusive: 39.8 µM [inhibitor, partial curve, poor fit]	
CCOc1ccc(/C=C/C(=O)Nc2sc3c(c2C(=O)OC)C(C(=O)OC)CC3)cc1 (stereo not given)	inconclusive: 89.1 µM [inhibitor, single point]	
COc1cc(NS(=O)(=O)c2cnc(N)nc2)cc(OC)c1		inactive: -16%
C#CCn1c(=O)c2c(ncn2C)n(C)c1=O	inconclusive: 29.9 µM [inhibitor, single point]	
CCOC(=O)c1cc(C)n(CC2CCC(C(=O)Nc3ccc(C(C)=O)cc3)CC2)c1C (stereo not given)		inactive: -6.65%
O=C(CC1(O)C(=O)N(CCc2ccccc2)c2ccc(Br)cc21)c1ccc(F)cc1 (stereo not given)	inconclusive: 50.1 µM [inhibitor, partial curve, poor fit]	
c1ccc(-c2onc(-c3ccco3)c2-c2ccc3[nH]ccc3c2)cc1	inconclusive: 79.4 µM [inhibitor, partial curve, poor fit]	
O=C1ON=C(c2ccccc2)/C1=C/c1ccc(O)cc1	inconclusive: 44.7 µM [inhibitor, partial curve, poor fit]	
CN(C)CCCn1c2c3ccccc3ccc2c2oc(=O)c3ccccc3c21	active: 28.2 µM and active: 3.16 µM	
CN1CCN(c2cc(-c3cc(O)c4ncccc4c3)ccn2)CC1	inconclusive: 22.4 µM [inhibitor, full curve]	
O=C(O)C1Nc2c(C(=O)N3CCOCC3)cccc2C2C=CCC12 (stereo not given)	inconclusive: 50.1 µM [inhibitor, partial curve]	
N#C/C(=C\c1ccc(O)c(O)c1)C(=O)NCc1ccccc1	inconclusive: 2.67 µM [inhibitor, partial curve, poor fit]	
O=Cc1ccc(O)c2ncccc12	inconclusive: 14.1 µM [inhibitor, full curve]	
C=CCn1c(SCC(=O)NC2CC2)nnc1-c1cccc(OC)c1	inconclusive: 89.1 µM [inhibitor, single point]	
CC(C(=O)O)N1C(=O)/C(=C/C=C/c2ccco2)SC1=S (stereo not given)	active: 7.94 µM	
Cc1ccc2oc(-c3cccc(NC(=S)NC(=O)/C=C/c4ccco4)c3)nc2c1		inactive: -15.6%
O=C(c1cccnc1)N(c1cc2sc(=O)oc2c2ccccc12)S(=O)(=O)c1ccccc1	inconclusive: 89.1 µM [inhibitor, single point]	
COC(=O)c1ccccc1NS(=O)(=O)c1ccc2c3c(cccc13)C(=O)N2	inconclusive: 50.1 µM [inhibitor, partial curve, poor fit]	
Cc1ccccc1NC(=O)CSc1[nH]c(=O)cc(C)c1C#N	inconclusive: 20 µM [inhibitor, single point]	
